The record followed here is US20250296996A1, “ANGIOPOIETIN-RELATED PROTEIN 7-SPECIFIC ANTIBODIES AND USES THEREOF” (Broadwing Bio, Inc., priority 2022, published 2025).

The target of data set [1] is T1, human fibrinogen domain of the ANGPTL7 protein (P60, huANGPTL7-Fibrinogen-his) (Homo sapiens, UniProt O43827).
T1 construct: made in house; host or cells: human embryonic kidney cells (transient transfection, secreted)
T1 sequence (O43827 129-343): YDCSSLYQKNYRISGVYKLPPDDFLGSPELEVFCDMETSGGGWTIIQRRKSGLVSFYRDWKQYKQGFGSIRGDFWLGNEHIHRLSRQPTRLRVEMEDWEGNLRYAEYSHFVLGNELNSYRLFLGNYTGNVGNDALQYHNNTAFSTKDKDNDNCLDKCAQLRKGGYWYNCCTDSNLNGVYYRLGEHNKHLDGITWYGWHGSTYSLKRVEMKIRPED
The experiment in a line: Octet HTX binding kinetics to P60 (huANGPTL7-Fibrinogen-his). Conditions: P60 @ 200 nM. The method, then: ANGPTL7 Antibody Kinetics. Experiments were conducted to determine the reactivity and dissociation constants (KD) of anti-ANGPTL7 antibodies with the human fibrinogen domain of the ANGPTL7 protein. Binding experiments were performed on Octet HTX (ForteBio) in 1×PBS, pH 7.4, 0.1 mg/ml BSA, 0.05% Sodium Azide, and 0.02 Tween 20. Antibodies at a concentration of 50 nM were loaded on pre-hydrated AHC biosensors for 5 min. The loaded sensors were dipped into monovalent P60 (huANGPTL7-Fibrinogen-his) at a concentration of 200 nM for 5 min association, followed by 10 min dissociation. Results were analyzed with ForteBio Data Analysis 11.1 and fit to a 1:1 binding model to determine the monovalent KD. Responses (nm) at the end of association were also determined (Table 2).
A general note: BLI is a label-free optical method that tracks binding on a fibre tip over time.

Data set [2] can be described thus: Differential scanning fluorimetry (Protein Thermal Shift assay), thermal stability. It is filed as physicochemical. Conditions: DSF, melt 25° C. to 95° C., triplicate; in °C (unit assumed). The method, then: Human ANGPTL7 monoclonal antibody differential scanning fluorimetry (DSF). […] Among the many techniques used to study the stability of mAbs, differential scanning fluorimetry (DSF) offers both excellent throughput and minimal material consumption. DSF measures the temperature of the protein unfolding transition (Tm) based on the change in fluorescence intensity of an environmentally sensitive dye.
Experiments were conducted to assess the thermal stability of the human ANGPTL7 monoclonal antibodies (“ATX” antibodies) of the present disclosure by determining the melting temperature. Thermal stability was assessed via differential scanning fluorimetry (DSF) utilizing the Protein Thermal Shift (PTS) assay from Applied Biosystems. The assay was performed according to the manufacturer's instruction. Briefly, the antibody to be evaluated was prepared in triplicate by mixing with Protein Thermal Shift dye and buffer; a real-time melt experiment from 25° C. to 95° C. was run on QuantStudio 3. Data was analyzed by using Protein Thermal Shift Software and the melting temperature (Tm) was calculated from the melt curve (Table 1).
(In general: In DSF a fluorescence change marks the thermal transition of the protein.)

The target in data set [3] is T2, human ANGPTL7 multimer protein (Pext-01, huANGTPL7-FLAG multimer) (Homo sapiens, UniProt O43827).
T2 construct: human wild type ANGPTL7 multimer (PExt-1); purchased Biortus
T2 sequence (O43827 27-346): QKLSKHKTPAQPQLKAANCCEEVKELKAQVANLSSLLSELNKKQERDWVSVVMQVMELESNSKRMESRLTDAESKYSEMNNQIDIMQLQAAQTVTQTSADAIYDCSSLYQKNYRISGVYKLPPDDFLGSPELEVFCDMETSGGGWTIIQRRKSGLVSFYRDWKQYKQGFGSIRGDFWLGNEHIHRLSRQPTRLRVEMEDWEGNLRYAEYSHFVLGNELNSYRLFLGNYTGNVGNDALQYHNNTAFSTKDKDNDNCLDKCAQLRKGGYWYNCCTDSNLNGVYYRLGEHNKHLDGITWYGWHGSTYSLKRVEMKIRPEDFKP
The experiment in a line: Octet HTX binding kinetics to Pext-01 (huANGTPL7-FLAG multimer). Conditions: Pext-01 multimer @ 100 nM. The method, then: Experiments were also conducted to determine the reactivity and dissociation constants (KD) of anti-ANGPTL7 antibodies with the human ANGPTL7 multimer protein. Binding experiments were performed on Octet HTX (ForteBio) in 1×PBS, pH 7.4, 0.1 mg/ml BSA, 0.05% Sodium Azide, and 0.02% Tween 20. Antibodies at a concentration of 50 nM were loaded on pre-hydrated AHC biosensors for 5 mi. The loaded sensors were dipped into Pext-01 (huANGTPL7-FLAG) at a concentration of 100 nM for 5 min of association, followed by 10 min of dissociation. Results were analyzed with ForteBio Data Analysis 11.1 and fit to a 1:1 binding model to determine the apparent KD. Responses (nm) at the end of association were also determined (Table 7).

B1: ATX-P-433: human anti-ANGPTL7 monoclonal antibody; HCDR1-3 SEQ ID NOs 42, 58, 73; LCDR1-3 SEQ ID NOs 94, 106, 118 (antibody)
heavy: EVQLVESGGGLVQPGRSLRLSCAASGFTFDDFAMHWVRQGPGKGLEWVSGIGWNSGSIGYADSVKGRFTISRDNAKNSLYLQMNSLRAEDTALYYCAKAPDYGDYYFDYWGQGTLVTVSS
light: DIQMTQSPSSLSASVGDRVTITCRASQSISIYLNWYQQKPGTAPKLLIYAASSLQSGVPSRFSGSGSGTDFTLTISSLQPEDFAAYYCQQSYTTPLTFGGGTKVEIKRTVAAPSVFIFPPSDEQLKSGTASVVCLLNNFYPREAKVQWKVDNALQSGNSQESVTEQDSKDSTYSLSSTLTLSKADYEKHKVYACEVTHQGLSSPVTKSFNRGEC
By kon is commonly meant the second-order rate constant of association. Higher therefore signals faster complex formation. With B1, in data set [1], the “kdis” value amounted to 0.00243 s⁻¹ and the “kon” value was determined as 223000 M⁻¹ s⁻¹. In data set [2], the “Tm 2 - Mean” value is recorded as 72.49 and the “Tm D - Mean” value was 62.68. Further, in data set [3], the “kdis(1/s)” value is on record as “Slow Koff” and the “kon(1/Ms)” value is “Low KD”. In data set [3] (apparent KD, 1:1 model), the “KD (M)” value was “Low KD”.
